Data reported in paper PMC5892938.
Some of the results follow. At the low end of the ranking, values are background and their order means little.

Molecular target: GST-SBP-SLBP (stem-loop binding protein) (UniProt Q14493)
Assay: targeted RNA Bind-n-Seq;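 also: DESeq read counts versus GST-SBP nonspecific binding control pulldown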
Details: RBNS binding buffer: 25 mM Tris pH 7.5, 150 mM KCl, 3 mM MgCl2, 0.1% Tween, 0.5 mg/mL BSA, 1 mM DTT; 27 nM protein, 750 pM RNA pool; temperature not stated; high values mean tight binding

Sequence	binding signal (log2 fold change)
GGUCACGUCUCAAUCAACUCCUAAGAGGGGGGGAAAACCCCUUUACCCUCAAACUCAACAGCUCGCAGUCAAG	-0.114
GGUCACGUCUCAAUCAACUCAAGUCCAGGAGUUUUCUCCUGUUAUCUCAACAGCUCGCAGUCAAG	0.00716
GGUCACGUCUCAAUCAACUCAGUCUCCAGGGAAAGCCCUGGUAAAUUCAACAGCUCGCAGUCAAG	-0.267
GGUCACGUCUCAAUCAACUCAACUUCCAGGGAAAGCCCUGGUAUUUUCAACAGCUCGCAGUCAAG	-0.0671
GGUCACGUCUCAAUCAACUCGUCUUCAGGAGUUUACUCCUGCAAAUUCAACAGCUCGCAGUCAAG	-0.0447
GGUCACGUCUCAAUCAACUCAACUCCAGGAGUUUUCUCCUGUUUAUUCAACAGCUCGCAGUCAAG	0.0125
GGUCACGUCUCAAUCAACUCCCAAGAGGGGGGGAAAACCCCUUUGCCCUCAAUUUCAACAGCUCGCAGUCAAG	-0.0635
GGUCACGUCUCAAUCAACUCAUUCUCCAGGGAAACCCCUGGUAAUCUCAACAGCUCGCAGUCAAG	-0.0201
GGUCACGUCUCAAUCAACUCAAUCCCAGGAGUUUACUCCUGUAUAGUCAACAGCUCGCAGUCAAG	0.0751
GGUCACGUCUCAAUCAACUCUAAUGAGGGGGGGAAAACCCCUUUACCCUCCAAUUCAACAGCUCGCAGUCAAG	-0.304
GGUCACGUCUCAAUCAACUCAAUUCCCAGGGAAACCCCUGGUAUUUUCAACAGCUCGCAGUCAAG	-0.267
GGUCACGUCUCAAUCAACUCAAAAGAGGGGGGGAAAACCCCUUUGCCCUCGGAAUCAACAGCUCGCAGUCAAG	0.218
GGUCACGUCUCAAUCAACUCUUCUUCCAGGGAAAGCCCUGGCAUGUUCAACAGCUCGCAGUCAAG	0.213
GGUCACGUCUCAAUCAACUCAACUCCAGGAGUUUACUCCUGUUUACUCAACAGCUCGCAGUCAAG	-0.063
GGUCACGUCUCAAUCAACUCAUCUCCAGGAGUUUGCUCCUGUAUUUUCAACAGCUCGCAGUCAAG	-0.0825
GGUCACGUCUCAAUCAACUCAUUUUCCAGGGAAACCCCUGGCUAAUUCAACAGCUCGCAGUCAAG	0.348
GGUCACGUCUCAAUCAACUCUUCCUCCAGGGAAACCCCUGGCUAAUUCAACAGCUCGCAGUCAAG	0.0942
GGUCACGUCUCAAUCAACUCUUCUUCCAGGGAAACCCCUGGCAUGUUCAACAGCUCGCAGUCAAG	-0.0424
GGUCACGUCUCAAUCAACUCAUUCUCAGGAGUUUUCUCCUGCAAAGUCAACAGCUCGCAGUCAAG	0.0273
GGUCACGUCUCAAUCAACUCAUUCCCAGGAGUUUCCUCCUGUUUUUUCAACAGCUCGCAGUCAAG	-0.181
GGUCACGUCUCAAUCAACUCUUUUUCCAGGGAAAGCCCUGGUUUAUUCAACAGCUCGCAGUCAAG	-0.295
GGUCACGUCUCAAUCAACUCAAUUCCCAGGGAAAUCCCUGGCAUAUUCAACAGCUCGCAGUCAAG	0.139
GGUCACGUCUCAAUCAACUCAAUCUCCAGGGAAAGCCCUGGCAAUGUCAACAGCUCGCAGUCAAG	0.309
GGUCACGUCUCAAUCAACUCAUCUUCAGGAGUUUGCUCCUGCUUAUUCAACAGCUCGCAGUCAAG	0.141
GGUCACGUCUCAAUCAACUCUUUUCCCAGGGAAAACCCUGGUUAACUCAACAGCUCGCAGUCAAG	0.0544

Sequence	binding signal (log2 fold change)
GGUCACGUCUCAAUCAACUCAUCUUCCAGGGAAAACCCUGGUUAUUUCAACAGCUCGCAGUCAAG	0.148
GGUCACGUCUCAAUCAACUCAGAAGAGGGGGGGAAAACCCCUUUACCCUCAACAUCAACAGCUCGCAGUCAAG	-0.055
GGUCACGUCUCAAUCAACUCAUUCUCCAGGGAAAACCCUGGUAAUUUCAACAGCUCGCAGUCAAG	0.25
GGUCACGUCUCAAUCAACUCUCUAGAGGGGGGGAAAACCCCUUUGCCCUCGAAUUCAACAGCUCGCAGUCAAG	-0.0793
GGUCACGUCUCAAUCAACUCUCUAGAGGGGGGGAAAACCCCUUUACCCUCCAUCUCAACAGCUCGCAGUCAAG	-0.283
GGUCACGUCUCAAUCAACUCAACUCCAGGAGUUUUCUCCUGCAUACUCAACAGCUCGCAGUCAAG	0.152
GGUCACGUCUCAAUCAACUCUAUCUCCAGGGAAACCCCUGGCAAACUCAACAGCUCGCAGUCAAG	0.323
GGUCACGUCUCAAUCAACUCUUCUCCAGGAGUUUUCUCCUGUAAUGUCAACAGCUCGCAGUCAAG	0.145
GGUCACGUCUCAAUCAACUCAUUCUCCAGGGAAACCCCUGGUUAUCUCAACAGCUCGCAGUCAAG	0.156
GGUCACGUCUCAAUCAACUCAUCCCCAGGAGUUUACUCCUGCAUACUCAACAGCUCGCAGUCAAG	0.295
GGUCACGUCUCAAUCAACUCAAUUUCAGGAGUUUACUCCUGUAUUUUCAACAGCUCGCAGUCAAG	0.11
GGUCACGUCUCAAUCAACUCAUCGUCAGGAGUUUUCUCCUGUUUUUUCAACAGCUCGCAGUCAAG	0.121
GGUCACGUCUCAAUCAACUCAAGUCCAGGAGUUUACUCCUGUAUAUUCAACAGCUCGCAGUCAAG	-0.0523
GGUCACGUCUCAAUCAACUCCCAAGAGGGGGGGAAAACCCCUUUGCCCUCCUAAUCAACAGCUCGCAGUCAAG	-0.133
GGUCACGUCUCAAUCAACUCUACUCCCAGGGAAACCCCUGGCAAUUUCAACAGCUCGCAGUCAAG	0.0963
GGUCACGUCUCAAUCAACUCAAUCUCAGGAGUUUGCUCCUGUUAAUUCAACAGCUCGCAGUCAAG	-0.28
GGUCACGUCUCAAUCAACUCUACUUCAGGAGUUUUCUCCUGCUUACUCAACAGCUCGCAGUCAAG	0.089
GGUCACGUCUCAAUCAACUCUCUAGAGGGGGGGAAAACCCCUUUACCCUCAACCUCAACAGCUCGCAGUCAAG	-0.312
GGUCACGUCUCAAUCAACUCAUACGAGGGGGGGAAAACCCCUUUACCCUCAUCCUCAACAGCUCGCAGUCAAG	-0.382
GGUCACGUCUCAAUCAACUCAGUCUCCAGGGAAACCCCUGGCUUAUUCAACAGCUCGCAGUCAAG	-0.151
GGUCACGUCUCAAUCAACUCUUUCUCCAGGGAAACCCCUGGUAAAUUCAACAGCUCGCAGUCAAG	-0.0927
GGUCACGUCUCAAUCAACUCUUUCUCCAGGGAAAGCCCUGGUAAACUCAACAGCUCGCAGUCAAG	0.144
GGUCACGUCUCAAUCAACUCCCAAGAGGGGGGGAAAACCCCUUUGCCCUCACAAUCAACAGCUCGCAGUCAAG	0.0924
GGUCACGUCUCAAUCAACUCUAUUUCAGGAGUUUUCUCCUGUUUUCUCAACAGCUCGCAGUCAAG	-0.0697
GGUCACGUCUCAAUCAACUCAUUUUCAGGAGUUUCCUCCUGUAUUCUCAACAGCUCGCAGUCAAG	0.033

Sequence	binding signal (log2 fold change)
GGUCACGUCUCAAUCAACUCAUCUCCAGGAGUUUACUCCUGUAAUUUCAACAGCUCGCAGUCAAG	-0.0734
GGUCACGUCUCAAUCAACUCCAUCGAGGGGGGGAAAACCCCUUUACCCUCUUUUUCAACAGCUCGCAGUCAAG	-0.0509
GGUCACGUCUCAAUCAACUCAUUCUCCAGGGAAAACCCUGGCUUAUUCAACAGCUCGCAGUCAAG	-0.0995
GGUCACGUCUCAAUCAACUCAUUCCCAGGAGUUUGCUCCUGCAAUCUCAACAGCUCGCAGUCAAG	0.182
GGUCACGUCUCAAUCAACUCAUUCCCCAGGGAAACCCCUGGUUUACUCAACAGCUCGCAGUCAAG	-0.152
GGUCACGUCUCAAUCAACUCUUUUUCCAGGGAAACCCCUGGCAUAUUCAACAGCUCGCAGUCAAG	0.215
GGUCACGUCUCAAUCAACUCCUUAGAGGGGGGGAAAACCCCUUUGCCCUCACUAUCAACAGCUCGCAGUCAAG	-0.135
GGUCACGUCUCAAUCAACUCUUUUUCCAGGGAAAACCCUGGUAUUUUCAACAGCUCGCAGUCAAG	-0.0283
GGUCACGUCUCAAUCAACUCAUCCCCAGGAGUUUGCUCCUGCUAUCUCAACAGCUCGCAGUCAAG	-0.0221
GGUCACGUCUCAAUCAACUCAACGGCAGGAGUUUUCUCCUGGAUAUUCAACAGCUCGCAGUCAAG	0.000663
GGUCACGUCUCAAUCAACUCAAUUUCAGGAGUUUCCUCCUGCUUACUCAACAGCUCGCAGUCAAG	-0.174
GGUCACGUCUCAAUCAACUCAACUUCAGGAGUUUUCUCCUGUAUACUCAACAGCUCGCAGUCAAG	0.0253
GGUCACGUCUCAAUCAACUCACAAGAGGGGGGGAAAACCCCUUUGCCCUCAUCUUCAACAGCUCGCAGUCAAG	-0.111
GGUCACGUCUCAAUCAACUCAAUUUCCAGGGAAAACCCUGGUAUAUUCAACAGCUCGCAGUCAAG	-0.16
GGUCACGUCUCAAUCAACUCUUCCCCCAGGGAAACCCCUGGUAUAUUCAACAGCUCGCAGUCAAG	-0.14
GGUCACGUCUCAAUCAACUCUAUGUCAGGAGUUUCCUCCUGUUUUUUCAACAGCUCGCAGUCAAG	-0.178
GGUCACGUCUCAAUCAACUCAAUCUCCAGGGAAACCCCUGGUUAUCUCAACAGCUCGCAGUCAAG	-0.0801
GGUCACGUCUCAAUCAACUCUUUCUCCAGGGAAAACCCUGGUAAUCUCAACAGCUCGCAGUCAAG	-0.196
GGUCACGUCUCAAUCAACUCUUUUUCCAGGGAAACCCCUGGUAUGUUCAACAGCUCGCAGUCAAG	-0.00643
GGUCACGUCUCAAUCAACUCUCUAGAGGGGGGGAAAACCCCUUUGCCCUCACUUUCAACAGCUCGCAGUCAAG	-0.55
GGUCACGUCUCAAUCAACUCUUCUCCCAGGGAAACCCCUGGUUAUCUCAACAGCUCGCAGUCAAG	-0.149
GGUCACGUCUCAAUCAACUCCAUAGAGGGGGGGAAAACCCCUUUGCCCUCCACAUCAACAGCUCGCAGUCAAG	-0.0358
GGUCACGUCUCAAUCAACUCUUUUUCCAGGGAAAACCCUGGUUAUGUCAACAGCUCGCAGUCAAG	0.0187
GGUCACGUCUCAAUCAACUCUAUUUCAGGAGUUUACUCCUGUUAACUCAACAGCUCGCAGUCAAG	-0.12
